{"source": "the RNAGym collection of RNA variant scans (doi:10.1093/nar/gkz1192)", "parents": {"B1": {"name": "CPEB3 Ribozyme (parent)", "chain": "UAACAGGGGGCCACAGCAGAAGCGUUCACGUCGCAGCCCCUGUCAGAUUCUGGUGAAUCUGCGAAUUCUGCUGUAUAUCUC"}}, "note": "The source gives no read counts; variants with many changes may rest on few reads."}
{"variants_of": "B1", "test": "self-cleavage, relative activity (ratio to wild type); higher = more cleavage; in vitro, sequencing", "in_short": "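Relative activity was defined as the cleaved/total read fraction for a variant divided by the same fraction for the unmutated ribozyme. CPEB3 self-cleaving ribozyme libraries were made by rounds of error-prone PCR, barcoded, and transcribed in vitro with T7 RNA polymerase for 5 hours at 37°C, and cleavage ran through transcription plus a 15 min DNase I step before EDTA. Illumina sequencing of template-switched reverse transcripts gave the reads, and DNA sequencing mapped the barcodes. Averages come from three batches, using variants with at least 5 reads.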"}
{"variant": "UAACAGGGGGCCACAGCAGAGGCGUUGACGUCGCAGCCCCUGUCAGAUUCUGGUGAAUCAGCGGAUUCUGCUGUAUAUCUC", "note": "[A21G C27G U60A A64G]", "self-cleavage": 0}
{"variant": "UAACAGGGGGCCACAGCAGAGGCGUUCACGUCGCAGCCCCUGUCAGGUUCUGGUGAAUCUGCGAAUUCCGCUGUAUAUCUC", "note": "[A21G A47G U69C]", "self-cleavage": 0.07}
{"variant": "UAACAGGGGGCCACAGCAGAGGCGUUCACGUCACGGCCCCUGCCAGCUUCUGGUGAACCUGCGAAUUCUGCUGUAUAUCUC", "note": "[A21G G33A A35G U43C A47C U58C]", "self-cleavage": 0.02}
{"variant": "UAACAGGGGGCCACAGCAGAGGCAUUCACGUCGCAGCCCCUGCCAGAUACAGGUGAAUCUGCGAAUUCUGCCGCAUAUCUC", "note": "[A21G G24A U43C U49A U51A U72C U74C]", "self-cleavage": 0.04}
{"variant": "UAACAGGGGGCCACAGCAGAGGCGUUCACGUCGCAGCACCUGUCAGAUUCUGGUGAAUCUGAGAAUUCUGCUGUAUAUCUC", "note": "[A21G C38A C62A]", "self-cleavage": 0.26}
{"variant": "UAACAGGGGGCCACAGCAGAGGCGUUUACGACGCAGCCCCUGUCAGAUUCUGGUGUAUCUGCGAAUCCUGCUGUAAUUCUC", "note": "[A21G C27U U31A A56U U67C U76A A77U]", "self-cleavage": 0.06}
{"variant": "UAACAGGGGGCCACAGCAGAGGCGUUUACGUCGCAGCCCCUGCCAGAUUCUAGUGAGUCUGCGAAUUCUGCUGUAUAUCUC", "note": "[A21G C27U U43C G52A A57G]", "self-cleavage": 0.09}
{"variant": "UAACAGGGGGCCACAGCAGAGGCGUUCACGUCGCAGCCCCUGUCAGUUUCUGGUGAACCUGCGAAUUCUGCUGUAUAUCCC", "note": "[A21G A47U U58C U80C]", "self-cleavage": 0.32}
{"variant": "UAACAGGGGGCCACAGCAGAGGCGUUCACAUCGCAGCCCCUGUCAGAUUCUGGUGAAUCUGCGAGUUCUGCUGUAUAUCUC", "note": "[A21G G30A A65G]", "self-cleavage": 0.25}
{"variant": "UAACAGGGGGCCACAGCAGAGGCGUUCACGUCGCAGCCCCUGUCAGAUUCUGGUGAGUCGGCGAGUUCUGCUGUAUAUCUC", "note": "[A21G A57G U60G A65G]", "self-cleavage": 0.24}
{"variant": "UAACAGGGGGCCACAGCAGAGGCGUUCACGUCGCAGCACCUGUCAGAUUCUGGUGAAUCUGCGAAUUCUGCUGCAUAUCUC", "note": "[A21G C38A U74C]", "self-cleavage": 0.28}
{"variant": "UAACAGGGGGCCACAGCAGAGGCGUUCACGUCGCAGCCUCUGUCAGAUUCUGGUGGGUCUGCGAAUUCUGCUGUAUAUCUC", "note": "[A21G C39U A56G A57G]", "self-cleavage": 0}
{"variant": "UAACAGGGGGCCACAGCAGAGGCGUUCACGUCGCAGCUCCUGUCAGACUCUGGUGGAUCUGCGAGUUCUGCUGAAAAUCUC", "note": "[A21G C38U U48C A56G A65G U74A U76A]", "self-cleavage": 0}
{"variant": "UAACAGGGGGCCACAGCAGAGGCGUUCACGUCGCAGCCCCUGUCAGGUUCUGGUGAAUCUGCGAAUUCUGCUGUAUUUCUC", "note": "[A21G A47G A77U]", "self-cleavage": 0.61}
{"variant": "UAACAGGGGGCCACAGCAGAGGCGUUCACGUCACAGCCCCUGUCAGAUUCUGGUGAAUCCGCGAAUUCUGCUGUAUAUCUC", "note": "[A21G G33A U60C]", "self-cleavage": 0.12}
{"variant": "UAACAGGGGGCCACAGCAGAGGCGUUCACGUCGCAGCCCCUGUCAGAUUCUGGUGGAUCCGCGCAUUCUGCUGUAUAUCUC", "note": "[A21G A56G U60C A64C]", "self-cleavage": 0.16}
{"variant": "UAACAGGGGGCCACAGCAGAGGCGUUCAUGUCGCAGCCCCUGUCAGACUCCGGUGAAUCUGCGAAUUCUGCUGUAUACCCC", "note": "[A21G C29U U48C U51C U78C U80C]", "self-cleavage": 0.08}
{"variant": "UAACAGGGGGCCACAGCAGAGGUGUUCACGUCGGAGCCCCUGUCAGAUUCUGGUGAAUCUGCGAAUUCUGCUGUAUAUCUC", "note": "[A21G C23U C34G]", "self-cleavage": 0.29}
{"variant": "UAACAGGGGGCCACAGCAGAGGCUUUCACGUCGCAGCCCCUGUCAGGUUCUGGUGAAUCUGCGAAUUCUGCUGUACGUCUC", "note": "[A21G G24U A47G U76C A77G]", "self-cleavage": 0.08}
{"variant": "UAACAGGGGGCCACAGCAGAGGCGUUCACAUCGCAGCCCCUGUCAGAUUCUGGUGAACCUGCGAAUUCUGCUGUAUAUCUC", "note": "[A21G G30A U58C]", "self-cleavage": 0.06}
{"variant": "UAACAGGGGGCCACAGCAGAGGCGUUCACGUCGCAGGCCAUGUCAGAUUCUGGUGAUUCUGCAAAUUCUGCCGUAUAUCUC", "note": "[A21G C37G C40A A57U G63A U72C]", "self-cleavage": 0.05}
{"variant": "UAACAGGGGGCCACAGCAGAGGGGUUCACGUCGCAGCCCCUGCCAGAUUCUGGUGAAUCUGCGAAUUCUGCUGUAUAUCUC", "note": "[A21G C23G U43C]", "self-cleavage": 0.1}
{"variant": "UAACAGGGGGCCACAGCAGAGGCGUUCACGUCGUAGCCCCUGUCAGAUUCUGGUGAAUCUGCGGAUUCUGCUGUAUAUCUC", "note": "[A21G C34U A64G]", "self-cleavage": 0.31}
{"variant": "UAACAGGGGGCCACAGCAGAGGCGUUCACGUCGCAGUCCCUGUCACACUCUGGUGUGUCUGCGAAUUCUGCUGUACAUCUC", "note": "[A21G C37U G46C U48C A56U A57G U76C]", "self-cleavage": 0.04}
{"variant": "UAACAGGGGGCCACAGCAGAGGCGUUCACGUCGCAGCACCUGUCAGAUUCUGGAGUAUCUGCGAAUUCUGCUGUAUAUCUC", "note": "[A21G C38A U54A A56U]", "self-cleavage": 0.22}
{"variant": "UAACAGGGGGCCACAGCAGAGGCGUUCACGUCGGAGCCCCUGACAGAUUCUGGUGAACCUGCGAAUUUUGCUGUAUAUCUC", "note": "[A21G C34G U43A U58C C68U]", "self-cleavage": 0.08}
{"variant": "UAACAGGGGGCCACAGCAGAGGCGUUCACGUAGCAGCCCCUGUCAGAUUCUGGUGAAUCUGCGUAUUCUGCUGUAUAUCUC", "note": "[A21G C32A A64U]", "self-cleavage": 0.36}
{"variant": "UAACAGGGGGCCACAGCAGAGGCGUUCACGUAGCAGCCCCUGUCAGAUUCUGGUGAAUCUGCGAAUUCUGCCGUAUAUCUC", "note": "[A21G C32A U72C]", "self-cleavage": 0.26}
{"variant": "UAACAGGGGGCCACAGCAGAGGCGUUCAUGUCGCAGCCCCUGUCAGAUUCUGGUGAAUCCGCGAAUUCUGCUGUAUAUCUC", "note": "[A21G C29U U60C]", "self-cleavage": 0.19}
{"variant": "UAACAGGGGGCCACAGCAGAGGCGUUCACGUUGCAGCCCCUGUCAGAUUCAGGUGAAUCUGCGAAUCCUGCUGUAUAUCUC", "note": "[A21G C32U U51A U67C]", "self-cleavage": 0.1}
{"variant": "UAACAGGGGGCCACAGCAGAGGCGUUCACGUCGCAGCCCCUGUCAGAUUCUGGUGGAACUGCGAAUUCUGCCGUAUAUCUC", "note": "[A21G A56G U58A U72C]", "self-cleavage": 0.08}
{"variant": "UAACAGGGGGCCACAGCAGAGGCGUUCACGUCGCAGCCCCUGUCAGAUUCUGGUGGAUCAGCGAAUUCUGCUGUAUAUCCC", "note": "[A21G A56G U60A U80C]", "self-cleavage": 0.24}
{"variant": "UAACAGGGGGCCACAGCAGAGGCGUUCAUGUCGCAGCCCCAGUCAGGUUCAGGUGUAUCUGCGAAUUCUGCAGUAUAUCUC", "note": "[A21G C29U U41A A47G U51A A56U U72A]", "self-cleavage": 0.05}
{"variant": "UAACAGGGGGCCACAGCAGAGGCGUUCACGUUGCAGCCCCUGUCAGAUUCAGGUGAAUCUGCGAAUUCUGCUGUAUAUCUC", "note": "[A21G C32U U51A]", "self-cleavage": 0.26}
